Test results from the supplement of paper PMC11348887.
Counter-ions that a name gives are not always drawn. Some of the results follow. Rule as the data show it: active = -2 or less and inactive = the rest. Repeats are few or missing, and single values can be far off.

test system: hPSC-derived cortical neurons (WA09); experiment: nuclei number (viability) z-score; higher = more surviving cells; conditions: 5 µM; treatment: days 7-14 after plating, readout day 21
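Also: nuclei counted from DAPI counterstain by automated high-content image analysis, four fields per well at ×20 in 384-well plates, with sequential b-score then z-score normalization.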

Compound	nuclei number (z-score)
C/C(O)=C(\C#N)C(=O)Nc1ccc(C(F)(F)F)cc1 [Teriflunomide]	inactive: -0.0389
CO[C@H]1C[C@@H]2CC[C@@H](C)[C@@](O)(O2)C(=O)C(=O)N2CCCC[C@H]2C(=O)O[C@H]([C@H](C)C[C@@H]2CC[C@H](n3cnnn3)[C@H](OC)C2)CC(=O)[C@H](C)/C=C(\C)[C@@H](O)[C@@H](OC)C(=O)[C@H](C)C[C@H](C)/C=C/C=C/C=C/1C [Zotarolimus(ABT-578)]	inactive: -0.497
CCCC(=O)Nc1cccc(NC(=O)c2ccccc2Br)c1	inactive: 0.0126
O=C(c1ccc(Cl)cc1Cl)n1nnc2ccccc21	inactive: 0.56
COc1cc(-c2cc(-c3cccc(O)c3)cnc2N)cc(OC)c1OC	inactive: 3.13
O=C(O)c1ccc(O)c2ncccc12	inactive: -1.45
COc1cc2ncnc(Nc3ccc(O)c(Br)c3)c2cc1OC	inactive: 2.51
O=C(NC1CC1)c1cc(-c2cccs2)on1 [Isoxazole 9 (ISX-9)]	inactive: 0.0752
Oc1cc(O)cc(/C=C/c2ccc(O)c(O)c2)c1 [Piceatannol]	inactive: 0.2
Nc1nc(=O)[nH]cc1F [Flucytosine]	inactive: 1.2
Nc1nnc(-c2cccc(Cl)c2Cl)c(N)n1 [Lamotrigine]	inactive: 0.901
Cc1cc(Nc2cc(CN3CCOCC3)c3nc(C)c(Cc4ccc(Cl)cc4F)n3n2)n[nH]1	inactive: 1.15
CCOC(=O)N[C@@H]1CC[C@@H]2[C@@H](C1)C[C@H]1C(=O)O[C@H](C)[C@H]1[C@H]2/C=C/c1ccc(-c2cccc(F)c2)cn1 [Vorapaxar]	inactive: 0.595
CC[C@@]1(O)C(=O)OCc2c1cc1n(c2=O)Cc2cc3c(CN(C)C)c(O)ccc3nc2-1 [Topotecan HCl]	inactive: -0.447
CN(C)C(=O)c1cc2cnc(Nc3ccc(N4CCNCC4)cn3)nc2n1C1CCCC1	inactive: 1.03
CC(=O)O[C@]1(C(C)=O)CC[C@H]2[C@@H]3C=C(C)C4=CC(=O)CC[C@]4(C)[C@H]3CC[C@@]21C [Megestrol Acetate]	inactive: 0.139
C=C1[C@H](CO)[C@@H](O)C[C@@H]1n1cnc2c(=O)[nH]c(N)nc21 [Entecavir Hydrate]	inactive: 1.81
CN1CCN(c2ccc(Nc3cc(-c4cccc(-n5ccc6cc(C7CC7)cc(F)c6c5=O)c4CO)cn(C)c3=O)nc2)CC1	inactive: -1.25
COc1ccc2c(c1)c(CC(=O)OCC(=O)O)c(C)n2C(=O)c1ccc(Cl)cc1 [Acemetacin]	inactive: 1.61
CC(=O)NC[C@H]1CN(c2ccc(N3CCOCC3)c(F)c2)C(=O)O1 [Linezolid]	inactive: -0.00916
Cc1nccn1CC1CCc2c(c3ccccc3n2C)C1=O (configuration not stated) [Ondansetron HCl]	inactive: -1.75
Cn1sc(=O)n(Cc2ccccc2)c1=O	inactive: -0.245
COc1cc2c(cc1Cc1cccc(Cl)c1F)c(=O)c(C(=O)O)cn2[C@H](CO)C(C)C [Elvitegravir (GS-9137_ JTK-303)]	inactive: -0.538
COc1ccc2cc3[n+](cc2c1OC)CCc1cc2c(cc1-3)OCO2 [Berberine HCl]	active: -7.96

Compound	nuclei number (z-score)
CC(C)CCCCC(=O)N[C@@H](CCN)C(=O)N[C@H](C(=O)N[C@@H](CCN)C(=O)N[C@H]1CCNC(=O)[C@H]([C@@H](C)O)NC(=O)[C@H](CCN)NC(=O)[C@H](CCN)NC(=O)[C@H](CC(C)C)NC(=O)[C@@H](Cc2ccccc2)NC(=O)[C@H](CCN)NC1=O)[C@@H](C)O [Polymyxin B sulphate]	inactive: 0.49
CC(C)(C)OC(=O)Nc1ccc(-c2cc(C(=O)NCCCCCCC(=O)NO)no2)cc1	active: -2.82
Nc1ccccc1NC(=O)c1ccc(CNc2nccc(-c3cccnc3)n2)cc1 [Mocetinostat (MGCD0103)]	active: -4.93
COc1cc(-c2cc(-c3ccc(N4CCNCC4)cc3)cnc2C)cc(OC)c1OC	inactive: -0.25
Cc1ccc(S(=O)(=O)/C=C/C#N)cc1	active: -5.83
CC1=C(C(=O)O)N2C(=O)[C@@H](NC(=O)[C@H](N)c3ccccc3)[C@H]2SC1 [Cephalexin]	inactive: -1.53
Cc1cccn2c(=O)c(-c3nnn[nH]3)cnc12 [Pemirolast potassium]	inactive: -0.0481
CC[C@H](C)C(=O)O[C@H]1C[C@H](O)C=C2C=C[C@H](C)[C@H](CC[C@@H](O)C[C@@H](O)CC(=O)O)[C@H]21 [Pravastatin sodium]	inactive: -0.123
Oc1nc(-c2ccc(C(F)(F)F)cc2)nc2c1CSCC2	inactive: -0.383
Cc1nc2ccc(NC(=O)Nc3ccnc4cccnc34)cc2o1	inactive: 0.405
NC1=NCC2c3ccccc3Cc3ccccc3N12 (configuration not stated) [Epinastine HCl]	inactive: 0.991
NC(=O)N1c2ccccc2CC(=O)c2ccccc21 [Oxcarbazepine]	inactive: 2.11
CN(C)c1ccc(-c2nc3ncc(Cl)c(N4CCN(CC(=O)Nc5nccs5)CC4)c3[nH]2)cc1	inactive: 0.15
CC(C)Cn1cnc2c(N)nc3ccccc3c21 [Imiquimod]	inactive: 1.37
CN(C)c1cc(NC(=O)CNC(C)(C)C)c(O)c2c1C[C@H]1C[C@H]3[C@H](N(C)C)C(O)=C(C(N)=O)C(=O)[C@@]3(O)C(O)=C1C2=O [Tigecycline]	inactive: 0.292
CCNc1nc(Nc2cc(F)c(C(=O)N3CCOCC3)cc2OC)ncc1C(F)(F)F	inactive: 0.509
COc1cc(NS(=O)(=O)c2ccc(N)cc2)nc(OC)n1 [Sulphadimethoxine]	inactive: 0.959
CC1(C)O[C@@H]2[C@@H](CO[C@@]3(COS(N)(=O)=O)OC(C)(C)O[C@@H]23)O1 [Topiramate]	inactive: 0.465
O=C1N=C(O)NC1(c1ccccc1)c1ccccc1 [Phenytoin sodium]	inactive: 0.37
O=C1Nc2ccc(I)cc2/C1=C/c1cc(Br)c(O)c(Br)c1	inactive: 2.54
O=C(c1ccc(F)cc1)N1CCC[C@H](c2nc(-c3ccc(F)cc3)no2)C1	inactive: 0.543
Cc1ccc(Cl)cc1N(CC(=O)Nc1c(F)cccc1F)S(C)(=O)=O	inactive: 0.184
Cc1cccc(Nc2ccncc2S(=O)(=O)NC(=O)NC(C)C)c1 [Torsemide]	inactive: 0.325
NS(=O)(=O)c1ccc(NC(=O)Nc2ccc(F)cc2)cc1	inactive: 4.18

Compound	nuclei number (z-score)
S=c1[nH]cnc2nc[nH]c12 [Mercaptopurine (6-MP)]	inactive: -1.79
O=C(NCCCNc1nc(Nc2cccc(NC(=O)N3CCCC3)c2)ncc1I)c1cccs1	inactive: 0.239
CN(Cc1ccc(C(C)(C)C)cc1)Cc1cccc2ccccc12 [Butenafine HCl]	inactive: -0.0631
Cc1cccc(-c2[nH]ncc2-c2ccc3ncccc3n2)n1	inactive: -0.364
Cc1nc2c(O)cccc2c(=O)[nH]1	inactive: 3.55
O=C(NNc1ccccc1)c1ccncc1	inactive: 0.078
CC(C)n1cnc2c(NCCc3ccc(O)cc3)nc(-c3csc4ccccc34)nc21 [StemRegenin 1 (SR1)]	inactive: -0.586
c1cc(CN2CCCNCCNCCCNCC2)ccc1CN1CCCNCCNCCCNCC1 [Plerixafor 8HCl (AMD3100 8HCl)]	inactive: -0.629
O=c1[nH]c(=O)n([C@H]2C[C@H](O)[C@@H](CO)O2)cc1C(F)(F)F [Trifluridine]	inactive: 0.557
Cn1cncc1[C@@](N)(c1ccc(Cl)cc1)c1ccc2c(c1)c(-c1cccc(Cl)c1)cc(=O)n2C [Tipifarnib]	inactive: -0.766
Cc1nnc(SCC2=C(C(=O)O)N3C(=O)[C@@H](NC(=O)Cn4cnnn4)[C@H]3SC2)s1 [Cefazolin Sodium]	inactive: 0.838
Cc1cc(C#N)cc(C)c1Oc1nc(Nc2ccc(C#N)cc2)nc(N)c1Br [Etravirine (TMC125)]	inactive: 0.264
COc1ccc2c3c1O[C@H]1C[C@@H](O)C=C[C@@]31CCN(C)C2 [Galanthamine HBr]	inactive: 1.41
Cc1cc(F)c(Nc2ncnc3cc(OCc4ccccc4)ccc23)cc1O	inactive: 2.09
COc1c(C)c2c(c(O)c1C/C=C(\C)CCC(=O)OCCN1CCOCC1)C(=O)OC2 [Mycophenolate Mofetil]	inactive: 0.392
CN1C(C(=O)Nc2ccccn2)=C(O)c2ccccc2S1(=O)=O [Piroxicam]	inactive: 0.475
COCCOC(=O)C1=C(C)NC(C)=C(C(=O)OC(C)C)C1c1cccc([N+](=O)[O-])c1 (configuration not stated) [Nimodipine]	inactive: -0.998
NCCS [Cysteamine HCl]	inactive: 0.153
O=C(NCc1cccc(O)c1)Nc1nc(-c2ccncc2)cs1	inactive: 3.08
COC(=O)CCc1ccc(OCC(O)CNC(C)C)cc1 (configuration not stated) [Esmolol HCl]	active: -5.25
O=C(O)c1ccc(-n2nc(-c3ccccc3O)nc2-c2ccccc2O)cc1 [Deferasirox]	inactive: 1.18
Oc1ccc(Cc2nc3c(Cc4ccccc4)nc(-c4ccc(O)cc4)cn3c2O)cc1 [Coelenterazine]	inactive: 3.01
C[C@H]1COC2(CCN(c3nc(=O)c4cc(C(F)(F)F)cc([N+](=O)[O-])c4s3)CC2)O1 (racemic) [BTZ043 Racemate]	inactive: -0.0424
CC1(C)[C@@H](O)CC[C@]2(C)[C@H]3C(=O)C=C4[C@@H]5C[C@@](C)(C(=O)O)CC[C@]5(C)CC[C@@]4(C)[C@]3(C)CC[C@@H]12 [Enoxolone]	inactive: -0.536
